# Results from the supplement of paper PMC12889115.
# The list shows a part of the results. Repeats are few or missing, and single values can be far off.
# Tested on: Salmonella enterica serovar Typhimurium SL1344
# Test: bacterial growth OD600 after 18 h in MHB with 0.5 µg/mL polymyxin B; higher = more bacterial growth (less inhibition)
# Settings: 25 µM; polymyxin B 0.5 µg/mL; system: broth
# Description: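 Secondary screen of the 553 primary hits at 25 µM. (i) S. Typhimurium SL1344 grown in Mueller-Hinton broth with 0.5 µg/mL polymyxin B, OD600 read after 18 h. (ii) SAFIRE assay: RAW 264.7 macrophages infected with S. Typhimurium sifB::gfp (MOI 30); compound added 2 h post-infection; cells fixed at 18 h; GFP-positive pixel fraction per macrophage imaged by confocal microscopy and expressed as % of DMSO control.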
# 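Note: polymyxin B level opens the outer membrane while sparing the inner membrane, with novobiocin wells as reference growth inhibitor.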
smiles,measurement,value
COc1ccc(C)cc1S(=O)(=O)N1CCC(CO)(Cc2cccc(C(F)(F)F)c2)CC1,bacterial growth OD600,-0.016
O=C(Nc1cccc(-c2ccc(F)cc2)c1)C1CCCN(Cc2cccnc2)C1 (centres undefined),bacterial growth OD600,0.001
O=C(Nc1cccc(-c2ccc(F)cc2)c1)C1CCCN(Cc2ccccn2)C1 (centres undefined),bacterial growth OD600,0.003
C=CCCC(=O)N1CCCC(C(=O)Nc2cccc(-c3ccc(F)cc3)c2)C1 (centres undefined),bacterial growth OD600,0.05
CC1CN(Cc2cccc3ncccc23)Cc2cc(Cl)ccc2O1 (centres undefined),bacterial growth OD600,0.177
CCc1noc(C)c1C(=O)N1CCC(CCC(=O)N2CCC(Cc3ccccc3)CC2)CC1,bacterial growth OD600,0.293
CN1C(=O)CC(CC(=O)N2CCCC(C(=O)c3nccn3C)C2)(c2ccc(-c3ccccc3)cc2)C1=O (centres undefined),bacterial growth OD600,-0.013
Cc1cnc(SCCN2CCOCC2)nc1C1CCCN(C(=O)CCC2CCCCC2)C1 (centres undefined),bacterial growth OD600,0.001
CC(C)(O)C#Cc1ccc(C(=O)N2Cc3ccccc3OC(c3ccccc3)C2)cc1 (centres undefined),bacterial growth OD600,0.001
CCC1CN(Cc2ccc(C(=O)OC)cc2)Cc2cc(OC)ccc2O1 (centres undefined),bacterial growth OD600,0.021
Cc1ccc2c(c1)CN(Cc1cn(C)nc1C)CC(c1ccsc1)O2 (centres undefined),bacterial growth OD600,0.393
CN(Cc1ccn[nH]1)C(=O)c1ccc2oc(-c3ccc(C(F)(F)F)cc3)nc2c1,bacterial growth OD600,0
COc1ccc(-c2nn(-c3ccccc3F)cc2CN(C)C(C)c2nccs2)cc1 (centres undefined),bacterial growth OD600,0.017
CCCCn1c(CN2CCCC(COC)C2)cnc1S(=O)(=O)CCCC(C)C (centres undefined),bacterial growth OD600,0.002
